In the supplement of paper PMC10441789:
Some of the results follow. Antibody binding of pooled human sera (four to six donors per pool; dilution not stated) to peptides of the Trypanosoma cruzi antigen TSSA on microarrays. Quantile-normalised fluorescence in arbitrary units, mean of duplicate arrays; higher = more binding. No active / inactive call. The uninfected pools are read here as the healthy donors of the same country. The strongest signals lie near the top of the scale (about 60,000).

What follows are sequences tested on pooled sera of uninfected people, Colombia (assay: antibody binding signal (normalised fluorescence) (arbitrary fluorescence units); higher = stronger serum antibody binding to peptide).
Description: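 Microarray of 15-residue peptides over residues 30-55 of Trypanosoma cruzi TSSAII, each with 1 to 10 substitutions at naturally variable positions, probed with one serum pool per country.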

**Q.** How did the antibody binding signal turn out when TEKKAAAGGTPSQSG was run?
**A.** The antibody binding signal was 169.

**Q.** With DKKPAAGEAPSPPGA as the sequence, how does the antibody binding signal read?
**A.** Its antibody binding signal is 121.

**Q.** For KEKKAAAGGAPSPSG, which antibody binding signal is on record?
**A.** Its antibody binding signal is 106.

**Q.** How did the antibody binding signal turn out when ENKPATGGAPSPPGA was run?
**A.** Its antibody binding signal is 186.

**Q.** How did the antibody binding signal turn out when PSGKENKAAAGGTPS was run?
**A.** The antibody binding signal was 538.

**Q.** KENKTAAGGAPSPPG was tested. Which antibody binding signal did it give?
**A.** The antibody binding signal was 123.

**Q.** How did the antibody binding signal turn out when EKKAATGGAPSQPGA was run?
**A.** The antibody binding signal was 759.

**Q.** Which antibody binding signal does the source give for TDNKAATGEAPSQPG here?
**A.** The antibody binding signal was 112.

**Q.** SGTDNKAAAGETPSP was tested. Which antibody binding signal did it give?
**A.** The antibody binding signal was 128.

**Q.** NKPAAGGAPSQPGAS was tested. Which antibody binding signal did it give?
**A.** The antibody binding signal was 332.

**Q.** Which antibody binding signal does the source give for STPPSGTENKPAAGG here?
**A.** Its antibody binding signal is 1270.

**Q.** With KDNKAAAGEAPSPPG as the sequence, how does the antibody binding signal read?
**A.** The antibody binding signal was 146.

**Q.** Which antibody binding signal does the source give for KAATGETPSQPGASS here?
**A.** Its antibody binding signal is 204.

**Q.** For KTAAGEAPSPPGASS, which antibody binding signal is on record?
**A.** Its antibody binding signal is 128.

**Q.** Which antibody binding signal does the source give for KDNKTAAGETPSQPG here?
**A.** The antibody binding signal was 324.

**Q.** With STPPSGKDKKTAAGE as the sequence, how does the antibody binding signal read?
**A.** Its antibody binding signal is 231.

**Q.** How did the antibody binding signal turn out when KDKKAAAGGTPSPSG was run?
**A.** Its antibody binding signal is 125.

**Q.** How did the antibody binding signal turn out when EKKPATGETPSPSGA was run?
**A.** Its antibody binding signal is 207.

**Q.** How did the antibody binding signal turn out when SGTDKKPAAGGTPSQ was run?
**A.** The antibody binding signal was 366.

**Q.** How did the antibody binding signal turn out when TISTPPSGKDNKAAT was run?
**A.** The antibody binding signal was 175.

**Q.** EKKPATGGAPSQPGA was tested. Which antibody binding signal did it give?
**A.** The antibody binding signal was 266.

**Q.** Which antibody binding signal does the source give for KKPATGGAPSPSGAS here?
**A.** Its antibody binding signal is 96.5.

**Q.** With GKENKPAAGETPSPS as the sequence, how does the antibody binding signal read?
**A.** The antibody binding signal was 144.

**Q.** How did the antibody binding signal turn out when DKKTATGGAPSQSGA was run?
**A.** Its antibody binding signal is 123.

**Q.** TISTPPSGKDNKAAA was tested. Which antibody binding signal did it give?
**A.** The antibody binding signal was 200.

**Q.** With TDNKAATGETPSPSG as the sequence, how does the antibody binding signal read?
**A.** The antibody binding signal was 135.

**Q.** SGTDNKAATGGAPSQ was tested. Which antibody binding signal did it give?
**A.** The antibody binding signal was 216.

**Q.** PPSGTENKPAAGETP was tested. Which antibody binding signal did it give?
**A.** Its antibody binding signal is 373.

**Q.** DKKTATGEAPSPPGA was tested. Which antibody binding signal did it give?
**A.** The antibody binding signal was 87.8.

**Q.** For GTDNKPAAGGAPSQS, which antibody binding signal is on record?
**A.** Its antibody binding signal is 228.

**Q.** PPSGKEKKTATGGTP was tested. Which antibody binding signal did it give?
**A.** Its antibody binding signal is 186.

**Q.** How did the antibody binding signal turn out when STPPSGTDNKAAAGE was run?
**A.** Its antibody binding signal is 147.

**Q.** For SGKDNKTAAGGAPSP, which antibody binding signal is on record?
**A.** Its antibody binding signal is 503.

**Q.** With KPAAGGTPSQSGASS as the sequence, how does the antibody binding signal read?
**A.** The antibody binding signal was 171.

**Q.** For TEKKAATGGAPSQPG, which antibody binding signal is on record?
**A.** Its antibody binding signal is 1230.

**Q.** For GTENKPAAGGTPSPP, which antibody binding signal is on record?
**A.** The antibody binding signal was 559.

**Q.** How did the antibody binding signal turn out when KDKKAAAGETPSQPG was run?
**A.** The antibody binding signal was 148.

**Q.** How did the antibody binding signal turn out when PPSGTENKAATGGTP was run?
**A.** Its antibody binding signal is 698.

**Q.** Which antibody binding signal does the source give for ISTPPSGTEKKTAAG here?
**A.** Its antibody binding signal is 143.

**Q.** How did the antibody binding signal turn out when GKENKPAAGEAPSQP was run?
**A.** Its antibody binding signal is 150.
